Experimental data reported in publication PMC9911399, “Two distinct binding modes provide the RNA-binding protein RbFox with extraordinary sequence specificity”.
Substitutions are numbered along the chain they refer to; changes in the protein carry UniProt numbers. Some of the results follow.

T1: RBFOX1 RRM (Homo sapiens, UniProt Q9NWB1 109-208)
T1 sequence: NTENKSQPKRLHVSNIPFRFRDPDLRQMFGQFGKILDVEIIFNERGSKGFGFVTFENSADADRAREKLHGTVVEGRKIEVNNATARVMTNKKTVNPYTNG

B1: CGGUCUU (DNA:RNA)
RNA: GGGAGACCGGAAUUCAGAUUGUCCCGGUCUUUUAAAUCCCGUCGUAGCCACCA
DNA 1: CAATCTGAATTCCGGTCTCCC
DNA 2: TGGTGGCTACGACGGGATT
B2: GGAUUAU (DNA:RNA)
RNA: B1 RNA with C25G, G27A, C29U, U30A
DNA 1: CAATCTGAATTCCGGTCTCCC
DNA 2: TGGTGGCTACGACGGGATT
B3: UCAACGC (DNA:RNA)
RNA: B1 RNA with C25U, G26C, G27A, U28A, U30G, U31C
DNA 1: CAATCTGAATTCCGGTCTCCC
DNA 2: TGGTGGCTACGACGGGATT
B4: CGGCCCA (DNA:RNA)
RNA: B1 RNA with U28C, U30C, U31A
DNA 1: CAATCTGAATTCCGGTCTCCC
DNA 2: TGGTGGCTACGACGGGATT
B5: GGCACAC (DNA:RNA)
RNA: B1 RNA with C25G, G27C, U28A, U30A, U31C
DNA 1: CAATCTGAATTCCGGTCTCCC
DNA 2: TGGTGGCTACGACGGGATT
B6: CUCCCAU (DNA:RNA)
RNA: B1 RNA with G26U, G27C, U28C, U30A
DNA 1: CAATCTGAATTCCGGTCTCCC
DNA 2: TGGTGGCTACGACGGGATT
B7: CUCGACA (DNA:RNA)
RNA: B1 RNA with G26U, G27C, U28G, C29A, U30C, U31A
DNA 1: CAATCTGAATTCCGGTCTCCC
DNA 2: TGGTGGCTACGACGGGATT
B8: AAAAGCU (DNA:RNA)
RNA: B1 RNA with C25A, G26A, G27A, U28A, C29G, U30C
DNA 1: CAATCTGAATTCCGGTCTCCC
DNA 2: TGGTGGCTACGACGGGATT
B9: GGCGCUC (DNA:RNA)
RNA: B1 RNA with C25G, G27C, U28G, U31C
DNA 1: CAATCTGAATTCCGGTCTCCC
DNA 2: TGGTGGCTACGACGGGATT
B10: GUCAUUA (DNA:RNA)
RNA: B1 RNA with C25G, G26U, G27C, U28A, C29U, U31A
DNA 1: CAATCTGAATTCCGGTCTCCC
DNA 2: TGGTGGCTACGACGGGATT
B11: CUUAAAU (DNA:RNA)
RNA: B1 RNA with G26U, G27U, U28A, C29A, U30A
DNA 1: CAATCTGAATTCCGGTCTCCC
DNA 2: TGGTGGCTACGACGGGATT
B12: UGUUAUG (DNA:RNA)
RNA: B1 RNA with C25U, G27U, C29A, U31G
DNA 1: CAATCTGAATTCCGGTCTCCC
DNA 2: TGGTGGCTACGACGGGATT
B13: UCCGAUC (DNA:RNA)
RNA: B1 RNA with C25U, G26C, G27C, U28G, C29A, U31C
DNA 1: CAATCTGAATTCCGGTCTCCC
DNA 2: TGGTGGCTACGACGGGATT
B14: AGCCAAG (DNA:RNA)
RNA: B1 RNA with C25A, G27C, U28C, C29A, U30A, U31G
DNA 1: CAATCTGAATTCCGGTCTCCC
DNA 2: TGGTGGCTACGACGGGATT
B15: UAUCGGU (DNA:RNA)
RNA: B1 RNA with C25U, G26A, G27U, U28C, C29G, U30G
DNA 1: CAATCTGAATTCCGGTCTCCC
DNA 2: TGGTGGCTACGACGGGATT
B16: CUUUAGU (DNA:RNA)
RNA: B1 RNA with G26U, G27U, C29A, U30G
DNA 1: CAATCTGAATTCCGGTCTCCC
DNA 2: TGGTGGCTACGACGGGATT
B17: GGUACCU (DNA:RNA)
RNA: B1 RNA with C25G, G27U, U28A, U30C
DNA 1: CAATCTGAATTCCGGTCTCCC
DNA 2: TGGTGGCTACGACGGGATT
B18: CGCUGUC (DNA:RNA)
RNA: B1 RNA with G27C, C29G, U31C
DNA 1: CAATCTGAATTCCGGTCTCCC
DNA 2: TGGTGGCTACGACGGGATT
B19: UUAGUGU (DNA:RNA)
RNA: B1 RNA with C25U, G26U, G27A, U28G, C29U, U30G
DNA 1: CAATCTGAATTCCGGTCTCCC
DNA 2: TGGTGGCTACGACGGGATT
B20: AGGAGUU (DNA:RNA)
RNA: B1 RNA with C25A, U28A, C29G
DNA 1: CAATCTGAATTCCGGTCTCCC
DNA 2: TGGTGGCTACGACGGGATT
B21: CUAAUCG (DNA:RNA)
RNA: B1 RNA with G26U, G27A, U28A, C29U, U30C, U31G
DNA 1: CAATCTGAATTCCGGTCTCCC
DNA 2: TGGTGGCTACGACGGGATT
B22: GCCGCCU (DNA:RNA)
RNA: B1 RNA with C25G, G26C, G27C, U28G, U30C
DNA 1: CAATCTGAATTCCGGTCTCCC
DNA 2: TGGTGGCTACGACGGGATT
B23: UGACGCG (DNA:RNA)
RNA: B1 RNA with C25U, G27A, U28C, C29G, U30C, U31G
DNA 1: CAATCTGAATTCCGGTCTCCC
DNA 2: TGGTGGCTACGACGGGATT
B24: CGGUAAA (DNA:RNA)
RNA: B1 RNA with C29A, U30A, U31A
DNA 1: CAATCTGAATTCCGGTCTCCC
DNA 2: TGGTGGCTACGACGGGATT
B25: AGAUACA (DNA:RNA)
RNA: B1 RNA with C25A, G27A, C29A, U30C, U31A
DNA 1: CAATCTGAATTCCGGTCTCCC
DNA 2: TGGTGGCTACGACGGGATT
B26: AUAUUAG (DNA:RNA)
RNA: B1 RNA with C25A, G26U, G27A, C29U, U30A, U31G
DNA 1: CAATCTGAATTCCGGTCTCCC
DNA 2: TGGTGGCTACGACGGGATT
B27: CUCACGC (DNA:RNA)
RNA: B1 RNA with G26U, G27C, U28A, U30G, U31C
DNA 1: CAATCTGAATTCCGGTCTCCC
DNA 2: TGGTGGCTACGACGGGATT
B28: GUAGAUU (DNA:RNA)
RNA: B1 RNA with C25G, G26U, G27A, U28G, C29A
DNA 1: CAATCTGAATTCCGGTCTCCC
DNA 2: TGGTGGCTACGACGGGATT
B29: AGGUCGC (DNA:RNA)
RNA: B1 RNA with C25A, U30G, U31C
DNA 1: CAATCTGAATTCCGGTCTCCC
DNA 2: TGGTGGCTACGACGGGATT
B30: UAAUCCA (DNA:RNA)
RNA: B1 RNA with C25U, G26A, G27A, U30C, U31A
DNA 1: CAATCTGAATTCCGGTCTCCC
DNA 2: TGGTGGCTACGACGGGATT
B31: UAAGCCA (DNA:RNA)
RNA: B1 RNA with C25U, G26A, G27A, U28G, U30C, U31A
DNA 1: CAATCTGAATTCCGGTCTCCC
DNA 2: TGGTGGCTACGACGGGATT

biological target: T1, RBFOX1 RRM; test: EMSA; HiTS-Eq, 1 nM pool, 10 min; buffer printed only for the single-RNA assays: 10 mM Tris pH 7.5, 150 mM NaCl, 3.4 mM EDTA, 0.001% NP-40, 30 C; settings: tags: His6 N-terminal (pET28a); label: 5' 32P
Method in brief: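 These values rest on relative association constants, computed from read-count changes of each RNA species versus the control reaction and normalised to the cognate motif. Reads came from free RNA recovered by 8% native PAGE after purified RbFox RRM (wild type or mutant) at increasing concentrations was equilibrated for 10 min in 50 µL with 1 nM of a 5′-radiolabelled pool with 7 randomized nucleotides and DNA-annealed flanks.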

Row | Binder | binding signal
1 | B1 | 0.00672 KA relative to UGCAUGU
2 | B2 | 0.0113 KA relative to UGCAUGU
3 | B3 | 0.00648 KA relative to UGCAUGU
4 | B4 | 0.00668 KA relative to UGCAUGU
5 | B5 | 0.00325 KA relative to UGCAUGU
6 | B6 | 0.00325 KA relative to UGCAUGU
7 | B7 | 0.00741 KA relative to UGCAUGU
8 | B8 | 0.00206 KA relative to UGCAUGU
9 | B9 | 0.0316 KA relative to UGCAUGU
10 | B10 | 0.00501 KA relative to UGCAUGU
11 | B11 | 0.00392 KA relative to UGCAUGU
12 | B12 | 0.0205 KA relative to UGCAUGU
13 | B13 | 0.00514 KA relative to UGCAUGU
14 | B14 | 0.00281 KA relative to UGCAUGU
15 | B15 | 0.0132 KA relative to UGCAUGU
16 | B16 | 0.0114 KA relative to UGCAUGU

Row | Binder | binding signal
17 | B17 | 0.01 KA relative to UGCAUGU
18 | B18 | 0.0145 KA relative to UGCAUGU
19 | B19 | 0.0175 KA relative to UGCAUGU
20 | B20 | 0.0159 KA relative to UGCAUGU
21 | B21 | 0.00688 KA relative to UGCAUGU
22 | B22 | 0.0124 KA relative to UGCAUGU
23 | B23 | 0.0215 KA relative to UGCAUGU
24 | B24 | 0.00497 KA relative to UGCAUGU
25 | B25 | 0.00472 KA relative to UGCAUGU
26 | B26 | 0.00629 KA relative to UGCAUGU
27 | B27 | 0.00572 KA relative to UGCAUGU
28 | B28 | 0.0081 KA relative to UGCAUGU
29 | B29 | 0.0178 KA relative to UGCAUGU
30 | B30 | 0.00387 KA relative to UGCAUGU
31 | B31 | 0.00675 KA relative to UGCAUGU
